Experimental data from article PMC11513981.
No constants are given. Whether binding was seen depends on the method and setting. For some of these results: Binding seen in cells or lysates may run through a third protein. Some entries that bind do so weakly or less than the wild type. For some of these results: Sequences can lack the tags named with a protein.

The chains behind the UniProt entries cited, without tags or fusion partners. Where a name states a change or a piece, a line headed by the entry shows the natural chain unless it says otherwise. A line that says so, or that is headed by a name, gives the form on record, which may keep a tag or linker.
UniProt P30530: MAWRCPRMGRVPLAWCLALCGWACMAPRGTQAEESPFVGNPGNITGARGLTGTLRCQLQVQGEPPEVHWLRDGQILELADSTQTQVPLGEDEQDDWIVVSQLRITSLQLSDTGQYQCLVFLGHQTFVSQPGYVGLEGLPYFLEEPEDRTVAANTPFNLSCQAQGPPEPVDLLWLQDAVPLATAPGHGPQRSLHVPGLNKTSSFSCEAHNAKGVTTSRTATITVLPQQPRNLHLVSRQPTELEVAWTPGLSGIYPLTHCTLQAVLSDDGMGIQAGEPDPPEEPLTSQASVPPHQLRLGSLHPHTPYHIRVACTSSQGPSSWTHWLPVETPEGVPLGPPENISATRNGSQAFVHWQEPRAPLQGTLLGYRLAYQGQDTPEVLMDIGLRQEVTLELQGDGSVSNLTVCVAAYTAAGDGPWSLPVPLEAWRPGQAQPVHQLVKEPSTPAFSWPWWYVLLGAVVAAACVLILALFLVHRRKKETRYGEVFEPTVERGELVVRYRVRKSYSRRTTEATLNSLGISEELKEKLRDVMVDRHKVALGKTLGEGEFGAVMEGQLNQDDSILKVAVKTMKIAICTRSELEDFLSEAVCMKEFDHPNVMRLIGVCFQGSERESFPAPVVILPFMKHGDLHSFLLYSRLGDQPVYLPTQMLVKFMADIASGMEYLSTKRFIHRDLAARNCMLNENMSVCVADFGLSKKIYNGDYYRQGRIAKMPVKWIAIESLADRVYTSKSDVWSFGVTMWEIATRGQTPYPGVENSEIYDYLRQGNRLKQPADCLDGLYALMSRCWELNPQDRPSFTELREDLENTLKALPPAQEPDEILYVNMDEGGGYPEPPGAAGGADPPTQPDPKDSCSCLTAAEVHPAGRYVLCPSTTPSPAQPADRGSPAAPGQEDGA
Axl-HA D91A (P30530, form named): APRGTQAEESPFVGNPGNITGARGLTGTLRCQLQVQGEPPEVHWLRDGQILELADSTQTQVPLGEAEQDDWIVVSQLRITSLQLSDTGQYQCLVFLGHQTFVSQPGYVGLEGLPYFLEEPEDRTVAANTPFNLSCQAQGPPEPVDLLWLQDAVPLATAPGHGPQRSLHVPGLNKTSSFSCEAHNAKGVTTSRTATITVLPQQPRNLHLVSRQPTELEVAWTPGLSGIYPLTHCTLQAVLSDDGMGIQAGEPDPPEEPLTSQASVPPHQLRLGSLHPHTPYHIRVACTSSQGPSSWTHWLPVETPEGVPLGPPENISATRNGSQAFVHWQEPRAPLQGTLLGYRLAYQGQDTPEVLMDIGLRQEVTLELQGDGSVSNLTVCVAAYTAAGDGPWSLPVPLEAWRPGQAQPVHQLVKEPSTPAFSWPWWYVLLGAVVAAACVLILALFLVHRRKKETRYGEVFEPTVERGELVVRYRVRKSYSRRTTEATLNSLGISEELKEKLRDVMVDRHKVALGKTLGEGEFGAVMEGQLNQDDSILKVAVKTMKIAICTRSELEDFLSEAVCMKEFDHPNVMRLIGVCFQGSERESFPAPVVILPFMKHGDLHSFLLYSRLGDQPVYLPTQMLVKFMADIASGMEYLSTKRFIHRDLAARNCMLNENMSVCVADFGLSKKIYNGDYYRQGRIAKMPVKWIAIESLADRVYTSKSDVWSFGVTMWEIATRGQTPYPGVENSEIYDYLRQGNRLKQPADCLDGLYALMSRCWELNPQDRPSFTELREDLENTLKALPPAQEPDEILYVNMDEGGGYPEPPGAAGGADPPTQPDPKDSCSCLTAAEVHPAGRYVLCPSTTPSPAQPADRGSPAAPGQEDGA
Axl-HA E90A (P30530, form named): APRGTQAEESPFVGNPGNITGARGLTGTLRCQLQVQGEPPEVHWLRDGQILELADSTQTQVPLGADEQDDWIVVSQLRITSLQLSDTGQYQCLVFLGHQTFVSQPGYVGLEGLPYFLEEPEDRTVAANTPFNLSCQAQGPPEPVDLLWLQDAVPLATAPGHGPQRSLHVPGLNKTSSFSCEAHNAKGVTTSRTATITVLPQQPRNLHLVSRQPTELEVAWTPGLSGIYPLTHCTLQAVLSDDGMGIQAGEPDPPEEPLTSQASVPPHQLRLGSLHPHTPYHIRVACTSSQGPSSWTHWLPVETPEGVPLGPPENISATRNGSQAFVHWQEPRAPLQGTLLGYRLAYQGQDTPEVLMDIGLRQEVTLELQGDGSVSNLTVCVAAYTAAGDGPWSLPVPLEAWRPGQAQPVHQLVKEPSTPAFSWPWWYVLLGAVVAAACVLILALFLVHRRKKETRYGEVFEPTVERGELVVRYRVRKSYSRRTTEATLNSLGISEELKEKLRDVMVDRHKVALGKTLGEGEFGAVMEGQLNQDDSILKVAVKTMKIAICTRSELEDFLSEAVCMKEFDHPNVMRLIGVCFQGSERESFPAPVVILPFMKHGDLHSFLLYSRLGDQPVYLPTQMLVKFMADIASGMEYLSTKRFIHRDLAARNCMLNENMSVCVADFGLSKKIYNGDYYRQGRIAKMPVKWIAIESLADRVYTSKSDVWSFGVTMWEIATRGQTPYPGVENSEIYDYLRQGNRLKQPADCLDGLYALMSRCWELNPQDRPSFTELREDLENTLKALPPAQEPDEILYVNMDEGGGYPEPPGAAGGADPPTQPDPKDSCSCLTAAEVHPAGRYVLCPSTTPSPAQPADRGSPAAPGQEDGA
Axl-HA E167A (P30530, form named): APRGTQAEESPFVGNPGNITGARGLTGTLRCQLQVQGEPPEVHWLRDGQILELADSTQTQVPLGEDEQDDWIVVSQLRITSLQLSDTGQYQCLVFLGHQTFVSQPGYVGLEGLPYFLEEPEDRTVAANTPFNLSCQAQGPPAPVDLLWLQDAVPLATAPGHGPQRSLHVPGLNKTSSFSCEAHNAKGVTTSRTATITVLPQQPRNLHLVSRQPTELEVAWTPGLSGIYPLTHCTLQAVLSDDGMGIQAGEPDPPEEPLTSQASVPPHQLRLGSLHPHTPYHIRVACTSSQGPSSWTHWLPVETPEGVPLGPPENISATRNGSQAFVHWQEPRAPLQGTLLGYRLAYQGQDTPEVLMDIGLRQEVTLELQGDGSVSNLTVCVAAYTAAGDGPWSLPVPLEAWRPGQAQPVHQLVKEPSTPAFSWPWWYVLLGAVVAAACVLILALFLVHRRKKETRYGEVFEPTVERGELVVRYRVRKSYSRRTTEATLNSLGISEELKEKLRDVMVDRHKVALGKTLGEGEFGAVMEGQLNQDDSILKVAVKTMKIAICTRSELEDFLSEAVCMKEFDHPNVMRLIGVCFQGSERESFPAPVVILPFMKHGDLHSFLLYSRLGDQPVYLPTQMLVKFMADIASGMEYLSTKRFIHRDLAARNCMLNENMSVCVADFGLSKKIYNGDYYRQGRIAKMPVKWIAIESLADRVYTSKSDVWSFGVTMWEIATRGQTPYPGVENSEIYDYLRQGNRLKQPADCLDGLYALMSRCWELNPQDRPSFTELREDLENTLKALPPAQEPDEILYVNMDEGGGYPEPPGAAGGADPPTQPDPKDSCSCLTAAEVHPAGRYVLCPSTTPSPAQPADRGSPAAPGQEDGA
Axl-HA N43A (P30530, form named): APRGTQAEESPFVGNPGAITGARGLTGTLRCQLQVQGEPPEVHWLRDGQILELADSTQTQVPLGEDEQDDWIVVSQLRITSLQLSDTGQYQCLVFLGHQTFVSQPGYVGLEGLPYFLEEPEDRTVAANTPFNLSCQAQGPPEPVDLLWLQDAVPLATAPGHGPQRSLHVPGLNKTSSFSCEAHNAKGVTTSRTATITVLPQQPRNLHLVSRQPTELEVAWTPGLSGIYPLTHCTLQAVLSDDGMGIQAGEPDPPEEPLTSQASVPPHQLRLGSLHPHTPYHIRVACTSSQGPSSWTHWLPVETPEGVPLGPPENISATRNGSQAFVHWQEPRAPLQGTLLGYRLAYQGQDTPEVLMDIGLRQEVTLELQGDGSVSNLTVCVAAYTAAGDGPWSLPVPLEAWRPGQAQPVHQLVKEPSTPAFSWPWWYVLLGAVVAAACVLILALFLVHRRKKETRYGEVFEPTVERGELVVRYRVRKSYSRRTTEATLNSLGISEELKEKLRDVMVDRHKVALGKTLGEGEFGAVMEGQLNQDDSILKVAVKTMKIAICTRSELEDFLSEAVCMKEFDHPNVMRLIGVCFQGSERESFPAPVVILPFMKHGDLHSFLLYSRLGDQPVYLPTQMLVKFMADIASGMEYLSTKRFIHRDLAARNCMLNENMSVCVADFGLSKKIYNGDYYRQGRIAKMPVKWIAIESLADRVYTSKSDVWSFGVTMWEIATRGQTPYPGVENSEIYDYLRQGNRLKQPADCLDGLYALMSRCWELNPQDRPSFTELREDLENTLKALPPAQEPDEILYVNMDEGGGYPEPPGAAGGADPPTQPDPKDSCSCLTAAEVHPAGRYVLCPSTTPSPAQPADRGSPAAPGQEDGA
Axl-HA R55A (P30530, form named): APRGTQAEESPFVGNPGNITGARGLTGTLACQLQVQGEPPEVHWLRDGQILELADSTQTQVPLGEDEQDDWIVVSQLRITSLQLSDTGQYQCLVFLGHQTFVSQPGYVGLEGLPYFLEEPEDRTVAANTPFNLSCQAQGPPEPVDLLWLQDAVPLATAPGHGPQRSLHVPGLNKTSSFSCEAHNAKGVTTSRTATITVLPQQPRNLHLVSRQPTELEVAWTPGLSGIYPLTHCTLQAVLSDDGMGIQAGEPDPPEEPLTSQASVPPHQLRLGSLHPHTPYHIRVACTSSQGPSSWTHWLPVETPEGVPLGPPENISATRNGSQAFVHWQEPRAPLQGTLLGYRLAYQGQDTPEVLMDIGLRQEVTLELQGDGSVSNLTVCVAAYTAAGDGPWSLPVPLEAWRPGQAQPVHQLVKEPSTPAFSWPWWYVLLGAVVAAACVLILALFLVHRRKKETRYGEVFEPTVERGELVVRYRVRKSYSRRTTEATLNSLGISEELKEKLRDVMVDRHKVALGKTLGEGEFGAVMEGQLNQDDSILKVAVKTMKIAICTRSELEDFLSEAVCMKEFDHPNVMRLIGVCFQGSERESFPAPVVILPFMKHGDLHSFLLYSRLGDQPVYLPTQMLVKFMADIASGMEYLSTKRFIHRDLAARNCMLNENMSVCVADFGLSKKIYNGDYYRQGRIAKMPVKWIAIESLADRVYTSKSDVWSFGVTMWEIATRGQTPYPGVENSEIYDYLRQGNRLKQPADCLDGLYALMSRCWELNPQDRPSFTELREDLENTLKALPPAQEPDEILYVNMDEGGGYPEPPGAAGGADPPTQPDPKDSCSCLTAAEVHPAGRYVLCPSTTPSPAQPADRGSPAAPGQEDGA
Axl-HA R190A (P30530, form named): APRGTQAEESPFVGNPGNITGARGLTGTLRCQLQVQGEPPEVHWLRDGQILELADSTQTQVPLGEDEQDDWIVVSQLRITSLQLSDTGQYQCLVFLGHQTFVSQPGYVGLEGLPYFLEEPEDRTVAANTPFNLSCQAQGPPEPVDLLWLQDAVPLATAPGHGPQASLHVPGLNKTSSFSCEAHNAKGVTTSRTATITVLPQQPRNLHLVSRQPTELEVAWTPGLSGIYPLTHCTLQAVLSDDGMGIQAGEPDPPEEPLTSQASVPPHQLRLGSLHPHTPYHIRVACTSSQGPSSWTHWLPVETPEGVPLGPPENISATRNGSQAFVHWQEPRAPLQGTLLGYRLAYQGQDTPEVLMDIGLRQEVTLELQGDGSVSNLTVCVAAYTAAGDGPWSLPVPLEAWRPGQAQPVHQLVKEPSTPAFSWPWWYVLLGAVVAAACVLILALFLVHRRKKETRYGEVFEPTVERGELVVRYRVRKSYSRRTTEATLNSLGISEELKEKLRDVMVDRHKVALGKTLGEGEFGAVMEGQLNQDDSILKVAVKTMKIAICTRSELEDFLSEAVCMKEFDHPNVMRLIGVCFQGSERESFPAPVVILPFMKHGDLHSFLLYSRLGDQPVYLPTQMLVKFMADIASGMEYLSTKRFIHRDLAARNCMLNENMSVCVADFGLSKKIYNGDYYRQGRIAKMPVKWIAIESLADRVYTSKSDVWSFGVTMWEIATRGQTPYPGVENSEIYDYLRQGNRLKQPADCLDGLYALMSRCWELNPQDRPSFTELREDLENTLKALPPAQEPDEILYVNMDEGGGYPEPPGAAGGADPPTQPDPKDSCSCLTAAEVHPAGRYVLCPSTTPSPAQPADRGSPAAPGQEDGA

Key:
[1] = target: T1, CD73 (human (endogenous in A549 and H226)) (UniProt P21589); assay: co-IP; endogenous proteins in A549 and H226 cell lysates; IgG-, Axl- or CD73-bound proteins resolved by SDS-PAGE and western blot
T1 sequence: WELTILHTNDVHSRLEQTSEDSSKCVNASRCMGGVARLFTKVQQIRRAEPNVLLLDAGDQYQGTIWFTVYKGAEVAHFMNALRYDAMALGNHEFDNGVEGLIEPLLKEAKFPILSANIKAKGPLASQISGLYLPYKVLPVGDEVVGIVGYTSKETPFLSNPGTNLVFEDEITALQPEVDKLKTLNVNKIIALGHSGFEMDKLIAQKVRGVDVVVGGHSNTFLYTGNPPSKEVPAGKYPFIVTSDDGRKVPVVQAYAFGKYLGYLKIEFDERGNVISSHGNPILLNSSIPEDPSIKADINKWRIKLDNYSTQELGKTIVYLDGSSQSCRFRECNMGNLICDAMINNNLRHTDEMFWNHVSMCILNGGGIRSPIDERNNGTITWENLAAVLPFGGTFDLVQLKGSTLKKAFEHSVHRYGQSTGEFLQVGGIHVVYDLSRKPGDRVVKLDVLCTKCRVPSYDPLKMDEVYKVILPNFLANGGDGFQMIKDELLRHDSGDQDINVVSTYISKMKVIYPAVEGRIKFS

Flag-tagged CD73 (human) = target: T2, Flag-tagged CD73 (human) (UniProt P21589); assay: co-IP; HA-tagged Axl (WT or point mutants) and Flag-tagged CD73 coexpressed in HEK293T cells; anti-FLAG agarose; western blot
T2 sequence: T1 sequence

GST-CD73 = target: T3, GST-CD73 (UniProt P21589); assay: pull-down; 5 μg GST-vector or GST-CD73 added into cell lysates, Glutathione-Sepharose 4B beads overnight at 4 °C; SDS-PAGE and western blot; proteins from an E. coli system; only the target purified
T3 sequence: T1 sequence

[2] = target: T4, human CD73 (novoprotein, Cat:C446) (human) (UniProt P21589); assay: SPR; Biacore T200; CD73 (20 μg/ml, 10 mM sodium acetate pH 4.5) immobilised on a CM5 chip; Axl Fc Chimera at different concentrations flowed at 30 μl/min for 5 min; 10 mM HEPES, 150 mM NaCl, 1 mM MnCl2, 0.05% Tween 20; both purified
T4 sequence: T1 sequence

Substance | binding (Flag-tagged CD73 (human)) | other results
Axl (from UniProt P30530 26-894) (receptor) |  | binding [1]: binds
Axl-HA D91A (from UniProt P30530 26-894) (receptor) | no binding | 
Axl-HA E90A (from UniProt P30530 26-894) (receptor) | no binding | 
Axl-HA E167A (from UniProt P30530 26-894) (receptor) | no binding | 
Axl-HA N43A (from UniProt P30530 26-894) (receptor) | no binding | 
Axl-HA R55A (from UniProt P30530 26-894) (receptor) | no binding | 
Axl-HA R190A (from UniProt P30530 26-894) (receptor) | no binding | 
HA-tagged Axl (WT, full-length Axl) (from UniProt P30530 26-894) (receptor) | binds | 
His-Axl-N (extracellular domain of Axl) (from UniProt P30530 26-451) (domain or fragment) |  | binding (GST-CD73): binds
human Axl Fc Chimera (R&D, Cat:154-AL) (from UniProt P30530 26-451) (Fc fusion) |  | binding [2]: binds
